# According to PMC9911399, “Two distinct binding modes provide the RNA-binding protein RbFox with extraordinary sequence specificity”:
# Positions count from the first letter of the chain named. The list shows a part of the results.
# T1: RBFOX1 RRM RbFoxmut (Fox-RRM*) (Homo sapiens, UniProt Q9NWB1 109-208, R118D;E147R;N151S;E152T)
# T1 sequence: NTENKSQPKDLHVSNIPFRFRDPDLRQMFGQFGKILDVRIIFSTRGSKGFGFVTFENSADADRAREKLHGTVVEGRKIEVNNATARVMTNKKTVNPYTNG
# B1: UUGCCAU (DNA:RNA)
# RNA: GGGAGACCGGAAUUCAGAUUGUCCUUGCCAUUUAAAUCCCGUCGUAGCCACCA
# DNA 1: CAATCTGAATTCCGGTCTCCC
# DNA 2: TGGTGGCTACGACGGGATT
# B2: GGUAAAC (DNA:RNA)
# RNA: B1 RNA with U25G, U26G, G27U, C28A, C29A, U31C
# DNA 1: CAATCTGAATTCCGGTCTCCC
# DNA 2: TGGTGGCTACGACGGGATT
# B3: UCUUCCA (DNA:RNA)
# RNA: B1 RNA with U26C, G27U, C28U, A30C, U31A
# DNA 1: CAATCTGAATTCCGGTCTCCC
# DNA 2: TGGTGGCTACGACGGGATT
# B4: CAUAUUU (DNA:RNA)
# RNA: B1 RNA with U25C, U26A, G27U, C28A, C29U, A30U
# DNA 1: CAATCTGAATTCCGGTCTCCC
# DNA 2: TGGTGGCTACGACGGGATT
# B5: UGAGGUA (DNA:RNA)
# RNA: B1 RNA with U26G, G27A, C28G, C29G, A30U, U31A
# DNA 1: CAATCTGAATTCCGGTCTCCC
# DNA 2: TGGTGGCTACGACGGGATT
# B6: GCCUUGA (DNA:RNA)
# RNA: GGGAGACCGGAAUUCAGAUUGUCCGCCUUGAUUAAAUCCCGUCGUAGCCACCA
# DNA 1: CAATCTGAATTCCGGTCTCCC
# DNA 2: TGGTGGCTACGACGGGATT
# B7: CAAUAGA (DNA:RNA)
# RNA: B6 RNA with G25C, C26A, C27A, U29A
# DNA 1: CAATCTGAATTCCGGTCTCCC
# DNA 2: TGGTGGCTACGACGGGATT
# B8: CGAUAUC (DNA:RNA)
# RNA: B6 RNA with G25C, C26G, C27A, U29A, G30U, A31C
# DNA 1: CAATCTGAATTCCGGTCTCCC
# DNA 2: TGGTGGCTACGACGGGATT
# B9: UUGGACA (DNA:RNA)
# RNA: B1 RNA with C28G, C29A, A30C, U31A
# DNA 1: CAATCTGAATTCCGGTCTCCC
# DNA 2: TGGTGGCTACGACGGGATT
# B10: CGCUUUG (DNA:RNA)
# RNA: B6 RNA with G25C, C26G, G30U, A31G
# DNA 1: CAATCTGAATTCCGGTCTCCC
# DNA 2: TGGTGGCTACGACGGGATT
# B11: UAUGUCC (DNA:RNA)
# RNA: B6 RNA with G25U, C26A, C27U, U28G, G30C, A31C
# DNA 1: CAATCTGAATTCCGGTCTCCC
# DNA 2: TGGTGGCTACGACGGGATT
# B12: UAAUCGA (DNA:RNA)
# RNA: B6 RNA with G25U, C26A, C27A, U29C
# DNA 1: CAATCTGAATTCCGGTCTCCC
# DNA 2: TGGTGGCTACGACGGGATT
# B13: CGUGAGC (DNA:RNA)
# RNA: B6 RNA with G25C, C26G, C27U, U28G, U29A, A31C
# DNA 1: CAATCTGAATTCCGGTCTCCC
# DNA 2: TGGTGGCTACGACGGGATT
# B14: CAUACCC (DNA:RNA)
# RNA: B1 RNA with U25C, U26A, G27U, C28A, A30C, U31C
# DNA 1: CAATCTGAATTCCGGTCTCCC
# DNA 2: TGGTGGCTACGACGGGATT
# B15: AGGAGAU (DNA:RNA)
# RNA: B1 RNA with U25A, U26G, C28A, C29G
# DNA 1: CAATCTGAATTCCGGTCTCCC
# DNA 2: TGGTGGCTACGACGGGATT
# B16: GGGAAGC (DNA:RNA)
# RNA: B6 RNA with C26G, C27G, U28A, U29A, A31C
# DNA 1: CAATCTGAATTCCGGTCTCCC
# DNA 2: TGGTGGCTACGACGGGATT
# B17: CCGAAGA (DNA:RNA)
# RNA: B6 RNA with G25C, C27G, U28A, U29A
# DNA 1: CAATCTGAATTCCGGTCTCCC
# DNA 2: TGGTGGCTACGACGGGATT
# B18: ACCUAUC (DNA:RNA)
# RNA: B6 RNA with G25A, U29A, G30U, A31C
# DNA 1: CAATCTGAATTCCGGTCTCCC
# DNA 2: TGGTGGCTACGACGGGATT
# B19: UUGCACA (DNA:RNA)
# RNA: B1 RNA with C29A, A30C, U31A
# DNA 1: CAATCTGAATTCCGGTCTCCC
# DNA 2: TGGTGGCTACGACGGGATT
# B20: CCACCAC (DNA:RNA)
# RNA: B1 RNA with U25C, U26C, G27A, U31C
# DNA 1: CAATCTGAATTCCGGTCTCCC
# DNA 2: TGGTGGCTACGACGGGATT
# Target: T1, RBFOX1 RRM RbFoxmut (Fox-RRM*)
# Experiment: EMSA; HiTS-Eq, 1 nM pool, 10 min; buffer printed only for the single-RNA assays: 10 mM Tris pH 7.5, 150 mM NaCl, 3.4 mM EDTA, 0.001% NP-40, 30 C
# Settings: tags: His6 N-terminal (pET28a); label: 5' 32P
# Outline: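 A pool of RNA with 7 randomized nucleotides, 5′-radiolabelled and with DNA-annealed flanks, was equilibrated at 1 nM for 10 min in 50 µL with purified RbFox RRM, wild type or mutant, across increasing protein concentrations. Free RNA was separated by 8% native PAGE, excised, reverse-transcribed, barcoded by PCR and sequenced. Relative association constants were obtained from read-count changes of each RNA species versus the control reaction and normalised to the cognate motif.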
row,Binder,binding signal
1,B1,0.0889 KA relative to UGCAUGU
2,B2,0.0429 KA relative to UGCAUGU
3,B3,0.0678 KA relative to UGCAUGU
4,B4,0.111 KA relative to UGCAUGU
5,B5,0.135 KA relative to UGCAUGU
6,B6,0.561 KA relative to UGCAUGU
7,B7,0.112 KA relative to UGCAUGU
8,B8,0.058 KA relative to UGCAUGU
9,B9,0.0509 KA relative to UGCAUGU
10,B10,0.118 KA relative to UGCAUGU
11,B11,0.107 KA relative to UGCAUGU
12,B12,0.0439 KA relative to UGCAUGU
13,B13,0.125 KA relative to UGCAUGU
14,B14,0.08 KA relative to UGCAUGU
15,B15,0.115 KA relative to UGCAUGU
16,B16,0.0873 KA relative to UGCAUGU
17,B17,0.0837 KA relative to UGCAUGU
18,B18,0.0961 KA relative to UGCAUGU
19,B19,0.0925 KA relative to UGCAUGU
20,B20,0.0828 KA relative to UGCAUGU
